Measurements as given in the RNAGym collection of RNA variant scans (doi:10.7554/elife.90254).
Read counts are not given, so values of variants with three or more changes are uncertain.

B1: LINE1-mini (parent)
chain: GGCAGAGCUCAACACAGCGUGGCAAAGUGGCUGUGGCUAGACUGCC

Variants of: B1
Assay: self-cleavage, relative activity (ratio to wild type); higher = more cleavage; in vitro, sequencing; the parent is a self-cleaving ribozyme

**Q.** With GGCAGAUCUCAACACAGCGUGGCAAGGUGGCUGUGGCUAAACUGCC [G7U A26G G40A] as the variant, how does the self-cleavage read?
**A.** 0.08

**Q.** For GGCAGAUCUCAACACAGGGUGGCACAGGGGCUGUGGGUAGACCGCC [G7U C18G A25C U28G C37G U43C], which self-cleavage is on record?
**A.** 0

**Q.** For GGCAGAUCUCCACACAGCGUGGCAAAGUCGCUGUGGCUAGACUGCC [G7U A11C G29C], which self-cleavage is on record?
**A.** 0.01

**Q.** Which self-cleavage does the source give for GGCAGAUCUCAACUCGGCGUCGUAAAGCGGCUGUGGCUAGACUGUC [G7U A14U A16G G21C C23U U28C C45U] here?
**A.** 0.08

**Q.** With GGCAGAUGACAACACAGCGUGGCAAAGUGUUUGUGGCUAGACUGCC [G7U C8G U9A G30U C31U] as the variant, how does the self-cleavage read?
**A.** 0.18

**Q.** For GGCAGAUCUCAAUACAGCGUGGCAAAGUGGCUGUGGCUAGACUGCU [G7U C13U C46U], which self-cleavage is on record?
**A.** 0.03

**Q.** For GGCAGAUCUCAAAACAGCGUGGCAAAUUGGCUGUGGCUUGACUGCC [G7U C13A G27U A39U], which self-cleavage is on record?
**A.** 0.07

**Q.** Which self-cleavage does the source give for GGCAGAUCUCAACACAGCGUGGCAACGUGGCUGUACCUAGACUUCC [G7U A26C G35A G36C G44U] here?
**A.** 0.06

**Q.** For GGCAGAUCUCAACGCAGCGUGGGAAAGUGGAUGAGGCCAGACCGCC [G7U A14G C23G C31A U34A U38C U43C], which self-cleavage is on record?
**A.** 0

**Q.** With GGCAGAUCUCAGCACAGCGUGGCAAAGUGGCUAUGGCUAGACUGCC [G7U A12G G33A] as the variant, how does the self-cleavage read?
**A.** 0.06

**Q.** Which self-cleavage does the source give for GGCAGAUCUCAAAACAGCGUGGCAAAUUGGCUGUGGCUAGACUGCC [G7U C13A G27U] here?
**A.** 0.08

**Q.** Which self-cleavage does the source give for GGCAGAUAUCGACAUAGCGUGGAAAAGUGGCUGUGGCUAGACUGCC [G7U C8A A11G C15U C23A] here?
**A.** 0

**Q.** Which self-cleavage does the source give for GGCAGAUCUCAACAAAGCGUUGCAAAGUGGCUGUUGAUAGACUGCC [G7U C15A G21U G35U C37A] here?
**A.** 0.02

**Q.** For GGCAGAUUCCAACACAGCGUGACAAAGUGGCUGUGGCUAGACUGCC [G7U C8U U9C G22A], which self-cleavage is on record?
**A.** 0.1

**Q.** Which self-cleavage does the source give for GGCAGAUCUCAAGACAGCGUGGUAAAGUGGCUGUGGCUAGCCUGCU [G7U C13G C23U A41C C46U] here?
**A.** 0.17

**Q.** For GGCAGAUCUAAACAUAGCGUGGCAAAGUGGCUGUGGCUCGACUGCC [G7U C10A C15U A39C], which self-cleavage is on record?
**A.** 0.15

**Q.** With GGCAGAUCUCAACACAGCGUGGCCAAGUGGCUGGGGCUAGACUGCC [G7U A24C U34G] as the variant, how does the self-cleavage read?
**A.** 0.12

**Q.** For GGCAGAUCUCCACACACCGUGGCAAAGAGACUGUGGCUAGACUGCC [G7U A11C G17C U28A G30A], which self-cleavage is on record?
**A.** 0.01

**Q.** For GGCAGAUCUCAAUACAGCUUCGCAAAGUGGCUCUGGAUAGACUGCC [G7U C13U G19U G21C G33C C37A], which self-cleavage is on record?
**A.** 0.3

**Q.** Which self-cleavage does the source give for GGCAGACCUCAACACAGCGUGGCAAAGUGGCCGUGGAUAGACUGCC [G7C U32C C37A] here?
**A.** 0.02

**Q.** Which self-cleavage does the source give for GGCAGAUCUCAACACAGCGUGGCACAGUGGCUGCGGCUAGACUGCC [G7U A25C U34C] here?
**A.** 0.04

**Q.** For GGCAGAUCUCAAGACAGCGAGGCAAAGUGUCAGUGUCUAGACUGCC [G7U C13G U20A G30U U32A G36U], which self-cleavage is on record?
**A.** 0.03

**Q.** For GGCAGAUCUCAGCACAGCGUGACAAAGUGGGCGUGGCUAGACUGCC [G7U A12G G22A C31G U32C], which self-cleavage is on record?
**A.** 0.03

**Q.** For GGCAGAUCUCAACACAGUGUGGCAAAGUGGCUGUGGCUCGACUGCC [G7U C18U A39C], which self-cleavage is on record?
**A.** 0.42

**Q.** Which self-cleavage does the source give for GGCAGAUCUCAACACAGCGUGGCACAGUGACUGUGGAUAGACUGCC [G7U A25C G30A C37A] here?
**A.** 0.06

**Q.** With GGCAGAUAUCAACACAGCGUGGCGAAGUAGCUGUCGCUAGACUGCC [G7U C8A A24G G29A G35C] as the variant, how does the self-cleavage read?
**A.** 0.4

**Q.** For GGCAGAUCUCAAAACAGCGUAGCAAAAUGGCUGUGGGUAGACUGCC [G7U C13A G21A G27A C37G], which self-cleavage is on record?
**A.** 0.01

**Q.** With GGCAGAUCUCCACACAGCGUGGCAAAGUGGCUGUGGCGAGACUGCC [G7U A11C U38G] as the variant, how does the self-cleavage read?
**A.** 0

**Q.** For GGCAGAUUUCAGCACAGCGUGGCAAAGUGGCUCUGGCUAGACUGCC [G7U C8U A12G G33C], which self-cleavage is on record?
**A.** 0.09

**Q.** For GGCAGAUCUCAACACAGCGUGGCAAGGUAGCUGUGGCAAGACUGCU [G7U A26G G29A U38A C46U], which self-cleavage is on record?
**A.** 0

**Q.** Which self-cleavage does the source give for GGCAGAUUUCAACACCGCGUGGCAAGGUGGCUGUGGCUAAACUGCC [G7U C8U A16C A26G G40A] here?
**A.** 0.05

**Q.** With GGCAGAUCUCAACACGGCGUGUCAAAGUGGCUAUGGCUAGACUACC [G7U A16G G22U G33A G44A] as the variant, how does the self-cleavage read?
**A.** 0.03

**Q.** Which self-cleavage does the source give for GGCAGAUCUCAACAGACCGUGGUAAAUUUGCUGUGCUUAGACUGCC [G7U C15G G17C C23U G27U G29U G36C C37U] here?
**A.** 0.06

**Q.** Which self-cleavage does the source give for GGCAGAUCUCAACACAGCGUGGCAGAGUGGCUGGGGCUAGACUGCC [G7U A25G U34G] here?
**A.** 0.04

**Q.** Which self-cleavage does the source give for GGCAGAUCUCAAGACAGCGUGGCCAAGUGGCUGUGGCGAGACUGCC [G7U C13G A24C U38G] here?
**A.** 0.02

**Q.** Which self-cleavage does the source give for GGCAGAUCUCAACAUAGCGUGGCAAAGAGGCUGUGGUUAGACUUCC [G7U C15U U28A C37U G44U] here?
**A.** 0.08

**Q.** For GGCAGAUCUCCACACAGAGUGCCAAAGUGGCUGUGGCUAGAUUGCC [G7U A11C C18A G22C C42U], which self-cleavage is on record?
**A.** 0

**Q.** For GGCAGAUCUAUACACAGCGUGGCACAGUGGCUGUGGCUAGACUGCC [G7U C10A A11U A25C], which self-cleavage is on record?
**A.** 0.01

**Q.** Which self-cleavage does the source give for GGCAGAUUACCACACAGCGGGGCAAUGUGGUUGUGGCUAGACUGCC [G7U C8U U9A A11C U20G A26U C31U] here?
**A.** 0.01

**Q.** For GGCAGAUCUCAACACAGUAUGACAAAGUGGCUGUGGCUAGACUGCC [G7U C18U G19A G22A], which self-cleavage is on record?
**A.** 0.04

**Q.** Which self-cleavage does the source give for GGCAGAUCUCAAAACAGCGUGGCAAUGUGGCUGUAGCUAGACUGUC [G7U C13A A26U G35A C45U] here?
**A.** 0.57

**Q.** With GGCAGAUAUCAACACAGGGUGGCAAAGUGGCUGAGGCUAGACUGCC [G7U C8A C18G U34A] as the variant, how does the self-cleavage read?
**A.** 0.11

**Q.** For GGCAGAUCUCAACUCAGCGUGGCAAAGUGGCUGUGGCUAUACUGCC [G7U A14U G40U], which self-cleavage is on record?
**A.** 0.04

**Q.** Which self-cleavage does the source give for GGCAGAUCUCAACUCAGCGUGGCGAAGUGACUGUGGCUGGACUGCC [G7U A14U A24G G30A A39G] here?
**A.** 0.27

**Q.** With GGCAGAUAUCAGAACAGCGUGGCAAAGUGGCUGUGGCUAGACUGCC [G7U C8A A12G C13A] as the variant, how does the self-cleavage read?
**A.** 0.6

**Q.** For GGCAGAUCUCACGACAGCGUGACAAGGUGGCUGUGGCUAGACUGCC [G7U A12C C13G G22A A26G], which self-cleavage is on record?
**A.** 0.1

**Q.** Which self-cleavage does the source give for GGCAGAUCUCAACACGGCGUGGCAAGCUGGCUGUGGCUAGACCGCC [G7U A16G A26G G27C U43C] here?
**A.** 0.08

**Q.** With GGCAGAUCUCAACACAGCGUGGCUAAGUGGCUGUGGCUAGAAUGCC [G7U A24U C42A] as the variant, how does the self-cleavage read?
**A.** 0.02

**Q.** Which self-cleavage does the source give for GGCAGAUCUCAACACAGCGUGGCCAAGUGGCUGUGGCUAUACUGCC [G7U A24C G40U] here?
**A.** 0.15

**Q.** Which self-cleavage does the source give for GGCAGAUCUCCACACAGCGUGGCCAGCUGGCUGUGGCUACACUGAC [G7U A11C A24C A26G G27C G40C C45A] here?
**A.** 0

**Q.** For GGCAGAUUUCAACACAGCGUGGCAAAGUGGGUGCGGCUAGACUGCC [G7U C8U C31G U34C], which self-cleavage is on record?
**A.** 0.11

**Q.** For GGCAGAUCUCUAGACAGCGUGGCAAAGUGGGUGUGGCUAGACUGCC [G7U A11U C13G C31G], which self-cleavage is on record?
**A.** 0.02

**Q.** With GGCAGAUCUCAACACAGCGUGGCAACAUGGCUGUGGCUAGACUGCC [G7U A26C G27A] as the variant, how does the self-cleavage read?
**A.** 0.02

**Q.** For GGCAGAUCUAAACACAGCGUGGCAAACUGGCUGUGGCUAGACUCCC [G7U C10A G27C G44C], which self-cleavage is on record?
**A.** 0.01

**Q.** With GGCAGACCUCAACACAGCGUGGCAAAGUGGCGGUGGCUAUACUGCC [G7C U32G G40U] as the variant, how does the self-cleavage read?
**A.** 0.06

**Q.** With GGCAGAUCUCAACACCGCGUGGAAAAGUGGCUGUGGCUAGACGGCC [G7U A16C C23A U43G] as the variant, how does the self-cleavage read?
**A.** 0.03
